Source: ChEMBL document CHEMBL5532667 (J Med Chem, 2024)
In brackets after ≈: the same amount, converted by molar mass.

Assays:
in vivo [1] = details: C57BL/6, mouse, iv, 1 mg/kg
in vivo [2] = details: C57BL/6, mouse, iv, 1 mg/kg; remark: listed apart in the source
in vivo [3] = details: C57BL/6, mouse, iv, 1 mg/kg; remark: listed apart in the source
in vivo [4] = details: C57BL/6, mouse, iv, 1 mg/kg; remark: listed apart in the source
in vitro [5] = details: mouse, microsomes
in vivo [6] = details: C57BL/6, mouse, iv, 1 mg/kg; remark: listed apart in the source
in vitro [7] = details: human, microsomes
in vitro [8] = details: human, microsomes; remark: listed apart in the source
in vivo [9] = details: C57BL/6, mouse, brain, iv, 1 mg/kg
in vitro [10] = details: mouse, microsomes; remark: listed apart in the source
NIH3T3 = assay: cells; details: Mus musculus, BALB/c, NIH3T3, light or radiation study
in vitro [11] = details: mouse, nih3t3

SMILES | Vd at 24 h (in vivo [1]) | AUC(0-t) at 24 h (in vivo [2]) | clearance at 24 h (in vivo [3]) | C0 at 24 h (in vivo [4]) | microsomal CLint at 1 h, 1 µM (in vitro [5]) | half-life at 24 h (in vivo [6]) | half-life at 1 h, 1 µM (in vitro [7]) | microsomal CLint at 1 h, 1 µM (in vitro [8]) | Kp at 24 h (in vivo [9]) | half-life at 1 h, 1 µM (in vitro [10]) | IC50 (NIH3T3) | IC50 at 1 h (in vitro [11])
C[C@](O)(CN1CC2CC(C1)N2c1ccc(C#N)cc1)C(=O)Nc1ccc(C#N)c(C(F)(F)F)c1 | 1.14 L/kg | 661 ng·h/mL | 35.2 mL/min/kg | – | – | – | – | – | – | – | – | –
C[C@](O)(CN1CCN(c2cnc(C#N)nc2)CC1)C(=O)Nc1ccc(C#N)c(C(F)(F)F)c1 | 3.33 L/kg | 1280 ng·h/mL | 13.3 mL/min/kg | 884 ng/mL | 54.2 µL/min/mg | 232 min | 12.1 min | 114 µL/min/mg | 0.15 | 25.6 min | – | –
C[C@](O)(CN1CC2CCC(C1)N2c1ccc(C#N)cc1)C(=O)Nc1ccc(C#N)c(C(F)(F)F)c1 | 2.64 L/kg | 1470 ng·h/mL | 11 mL/min/kg | 1240 ng/mL | 34.6 µL/min/mg | 241 min | 16.9 min | 82.2 µL/min/mg | – | 40 min | – | –
C[C@](O)(CN1CCN(c2ccc(F)cc2)CC1)C(=O)Nc1ccc(C#N)c(C(F)(F)F)c1 | – | – | – | – | 69 µL/min/mg | – | 9 min | 154 µL/min/mg | – | 20.1 min | – | –
CC/C(=C(\c1ccccc1)c1ccc(OCCN(C)C)cc1)c1ccccc1 [TAMOXIFEN] | – | – | – | – | – | – | – | – | – | – | 10.7 µg/mL (≈ 28.7 µM) | 13 µg/mL (≈ 35.1 µM)
